The chains are these.
B1: LINE1-mini (parent)
chain: GGCAGAGCUCAACACAGCGUGGCAAAGUGGCUGUGGCUAGACUGCC

Read counts are not given, so values of variants with three or more changes are uncertain.

The variants in this data set derive from B1. As to the kind of experiment: self-cleavage, relative activity (ratio to wild type); higher = more cleavage; in vitro, sequencing; the parent is a self-cleaving ribozyme.
In the case of C8G U9C C10U A11C A12U C13A A14C, the self-cleavage was 0.05.

For the variant C8U A12G C15A C23A C46U, the self-cleavage came out at 0.06.

Regarding C8U A14G C23G U38C, the self-cleavage was 0.1.

Take C8U A14C A25G U28A U32G G36A C37A C42A: the self-cleavage amounted to 0.17.

Turning to C8G G21U U28G, the self-cleavage stood at 0.05.

Take C8G G17A G30U A41C: the self-cleavage is 0.05.

On to C8U A12U U32A C37U, for which the self-cleavage was found to be 0.

On to C8G G19A C23U G36U U38G, for which the self-cleavage was found to be 0.01.

For C8U A16G C37U, the self-cleavage was found to be 0.04.

C8G U43C C46A: the self-cleavage came out at 0.01.

On to C8U A16G G30A, for which the self-cleavage is 0.14.

Consider C8G C23U G29U, for which the self-cleavage is 0.03.

Regarding C8G G19A C23U C45A, the self-cleavage is 0.

As for C8G U9G C13G C46U, the self-cleavage amounted to 0.07.

Regarding C8U A24G A39C, the self-cleavage came to 0.05.

For C8G C15A G17C G21A G22C A24G, the self-cleavage was 0.02.

In the case of C8U A16C G35C C37U, the self-cleavage worked out at 0.21.

Consider C8U A14C U20C G21A, for which the self-cleavage came to 0.02.

For the variant C8U C10A G29U, the self-cleavage came out at 0.02.

For C8U A24G G29U U32C, the self-cleavage turned out to be 0.05.

As for C8U A16G A39G, the self-cleavage came to 0.08.

For the variant C8U A12C G17A C45A, the self-cleavage came out at 0.02.

Consider C8U A14G U20A A39G, for which the self-cleavage amounted to 0.01.

As to C8G G29A C31A C37U, the self-cleavage was found to be 0.06.

On to C8U A12G G17C A24C A25C G35U C42U, for which the self-cleavage amounted to 0.02.

Take C8G C15A A24C G35A: the self-cleavage amounted to 0.04.

Take C8U A12C A16C G36A: the self-cleavage turned out to be 0.04.

In the case of C8G C31A G40C G44A, the self-cleavage is 0.01.

C8G U9C A12U C45A: the self-cleavage was 0.02.

For C8G U32C G40U, the self-cleavage was found to be 0.04.

As to C8G U9C C23A G44C, the self-cleavage amounted to 0.02.

Turning to C8G U9G C15A G19A C23G G27C U34A, the self-cleavage amounted to 0.02.

As to C8U A26U G29C, the self-cleavage amounted to 0.03.

With C8U A16U G30A, the self-cleavage came to 0.39.

C8G U38C A39U C45G: the self-cleavage came out at 0.03.

Regarding C8U C10A A24U, the self-cleavage came to 0.04.

Regarding C8G C15A G29U, the self-cleavage was 0.05.

Turning to C8G G30A C46U, the self-cleavage stood at 0.04.

As for C8G G22A C46U, the self-cleavage amounted to 0.03.

For C8G U34C G44A, the self-cleavage turned out to be 0.04.

For C8G C23U U43A, the self-cleavage was 0.08.

As to C8U A16U G35A, the self-cleavage was determined as 0.3.

Turning to C8G G21A G33U G44A C46U, the self-cleavage was determined as 0.05.

Regarding C8G U28C G30C U38G U43C, the self-cleavage is 0.04.

As to C8G G17U G21C A24G G36C C42G, the self-cleavage amounted to 0.06.

For the variant C8G G29C A39G C45U, the self-cleavage is 0.

With C8G G44C C46U, the self-cleavage was determined as 0.01.

In the case of C8U A11C G19C G33A, the self-cleavage was found to be 0.05.

Consider C8U A11G G40A A41G, for which the self-cleavage is 0.

Consider C8U A12U A14C A25U A39C, for which the self-cleavage stood at 0.1.

As to C8G G30U G36U U38G G44A, the self-cleavage turned out to be 0.01.

Consider C8G U9C C46A, for which the self-cleavage stood at 0.

For the variant C8G G29C C31U, the self-cleavage is 0.01.

On to C8G G17U C23A A41C, for which the self-cleavage was 0.02.

On to C8G G19U A25G C37A A39G, for which the self-cleavage was found to be 0.02.

In the case of C8G C18G C37U, the self-cleavage amounted to 0.17.

Consider C8G G33U G44U, for which the self-cleavage came out at 0.07.

Turning to C8G G30U A41C, the self-cleavage was 0.04.

In the case of C8U A11G U43A, the self-cleavage worked out at 0.

Turning to C8G G27U G30U U34C G35U A41C, the self-cleavage is 0.13.

As for C8G G17U C18A C23G C37A, the self-cleavage worked out at 0.18.

For C8G U9A G29A A39U, the self-cleavage was found to be 0.02.

In the case of C8G C31A G40U, the self-cleavage is 0.03.

For the variant C8G G22A G40U, the self-cleavage stood at 0.05.

As to C8U A12C A25C C31A A41C, the self-cleavage was found to be 0.02.

As to C8G C15G A39G G40U C45U, the self-cleavage was 0.01.

As to C8G C18G U38C, the self-cleavage was 0.01.

As for C8U A12G A14C U20A U43C G44C, the self-cleavage was 0.06.

C8G G17C U20C G40C: the self-cleavage came out at 0.02.

As to C8G C23G A39C, the self-cleavage was 0.05.

C8U A14G C15U A24G C37U: the self-cleavage was 0.13.

Regarding C8U A26G G27A G35C A41G, the self-cleavage was 0.09.

Take C8G G27A G29C: the self-cleavage was 0.07.

For C8G G27A G29U, the self-cleavage was 0.15.

C8G G19A G29U: the self-cleavage stood at 0.17.

On to C8U A12U C31U, for which the self-cleavage is 0.18.

With C8G G22C G27C, the self-cleavage was 0.04.

On to C8G C13U G29A G35C A41U U43C, for which the self-cleavage was 0.04.

For C8G G27C G44A, the self-cleavage is 0.02.

Consider C8U A12U A14U G17C U38A, for which the self-cleavage was found to be 0.12.

C8G G17A G33A: the self-cleavage was determined as 0.03.

As to C8G G21A G30C, the self-cleavage was determined as 0.01.

Regarding C8G C23A G35C C45U, the self-cleavage worked out at 0.02.

As for C8G C18G G21A G35A C42U, the self-cleavage was determined as 0.04.

For C8U A12G G21U, the self-cleavage worked out at 0.01.

For the variant C8U A11C A26U G33C A39U, the self-cleavage was 0.01.

In the case of C8G G19U G21U A26G C46U, the self-cleavage was 0.03.

In the case of C8U A14C U28A G30U, the self-cleavage came out at 0.12.

As to C8U A11U G17C G40A, the self-cleavage came to 0.

As to C8G U9G U20C A24C, the self-cleavage worked out at 0.01.

Take C8G C18A G19U U32C: the self-cleavage came out at 0.02.

Take C8U A12U A24U G30U: the self-cleavage was found to be 0.46.

C8U A14C G30U: the self-cleavage was 0.15.

With C8U A11G C18U G21A, the self-cleavage stood at 0.02.

Consider C8U A16G G27A G29C C46A, for which the self-cleavage was 0.09.

With C8G U9G A11U C23G, the self-cleavage was found to be 0.01.

In the case of C8G C15U C42G, the self-cleavage turned out to be 0.05.

Consider C8G G21U U43A, for which the self-cleavage was 0.14.

For C8U A25G C46U, the self-cleavage was 0.04.

Regarding C8G U9A U38A, the self-cleavage stood at 0.09.

For the variant C8G G19U G21A, the self-cleavage is 0.04.

Turning to C8G G27U G30C U38G G40U, the self-cleavage came out at 0.01.

As for C8G G19C C31G, the self-cleavage came out at 0.22.

On to C8G C13U U20G C45G, for which the self-cleavage was 0.04.

For C8U C10A C23A, the self-cleavage is 0.05.

Take C8G G27C G35U G44U: the self-cleavage worked out at 0.02.

In the case of C8G G19C G35A, the self-cleavage worked out at 0.17.

On to C8G G19U G40C G44U C46G, for which the self-cleavage came out at 0.

Regarding C8U A11G U34A C37U, the self-cleavage came to 0.02.

For C8U A11G C15U U38A, the self-cleavage is 0.01.

As for C8U A11G C45U, the self-cleavage was 0.

Turning to C8G G21U A26C A41C, the self-cleavage is 0.08.

Regarding C8G C31U A39U, the self-cleavage came to 0.07.

Consider C8U A12G G35U, for which the self-cleavage amounted to 0.03.

Regarding C8G U32G U34G, the self-cleavage was determined as 0.02.

As to C8G G17U G30U U32G, the self-cleavage came out at 0.02.

Regarding C8U A11G C15G, the self-cleavage stood at 0.02.

Consider C8U A25C G36A, for which the self-cleavage was found to be 0.06.

Take C8U C10A A39G: the self-cleavage stood at 0.11.

As to C8G C23A C31A G40U, the self-cleavage turned out to be 0.01.

On to C8U C10A G22U A26U G29U C31U, for which the self-cleavage was found to be 0.03.

C8G G40C C42A G44C: the self-cleavage is 0.03.

Turning to C8U A11C A26G U38C, the self-cleavage is 0.01.

As for C8G C18G G35U, the self-cleavage stood at 0.03.

On to C8G U9C C15G G17C U32A, for which the self-cleavage came out at 0.01.

Regarding C8G C15G G27A G33C, the self-cleavage turned out to be 0.02.

Turning to C8U A11C G27U C31U, the self-cleavage was found to be 0.01.

Consider C8G C23U C46U, for which the self-cleavage is 0.08.

For C8G G33A G36U C42U, the self-cleavage is 0.03.

C8G G21A U38G: the self-cleavage was determined as 0.04.

C8G G17U U34G G36U C46A: the self-cleavage is 0.09.

Turning to C8G C15A C23U G30C C46A, the self-cleavage was determined as 0.01.

Regarding C8U A24U G40U, the self-cleavage was found to be 0.12.

Regarding C8U A12U G22A, the self-cleavage stood at 0.08.

For C8U A14U G22A, the self-cleavage is 0.07.

On to C8U C10G C13U C23A G29A C42A, for which the self-cleavage came out at 0.01.

Consider C8G U20C A25G G30A A39G, for which the self-cleavage turned out to be 0.02.

Regarding C8G C31A A39C G40U, the self-cleavage came to 0.03.

Take C8G C18A U28C U34G U43C: the self-cleavage turned out to be 0.02.

With C8U A26G C42U, the self-cleavage worked out at 0.09.

For C8G U20C G30U U32A U34A A41G, the self-cleavage worked out at 0.05.

With C8U A39G A41U, the self-cleavage was 0.01.

Consider C8U A12C G22U C37U U38C, for which the self-cleavage was 0.01.

For the variant C8G C15A C45G, the self-cleavage was 0.08.

In the case of C8U A14U A41G, the self-cleavage was determined as 0.08.

Turning to C8U C10A A14C A24U, the self-cleavage was 0.02.

As for C8G G35U C42U, the self-cleavage turned out to be 0.03.

C8G C18U U28A U43C: the self-cleavage was 0.

In the case of C8U A16C G17U A41U, the self-cleavage was determined as 0.18.

C8G U9A G19A G21A C23U: the self-cleavage came to 0.05.

C8G G19U G21C C31G U38A: the self-cleavage amounted to 0.02.

Regarding C8U A12U C13A A41G, the self-cleavage was 0.17.

Turning to C8G G27A U28G G33U C37G, the self-cleavage was 0.06.

Take C8G G17U G19A G27A G35A A41C G44C: the self-cleavage amounted to 0.02.

In the case of C8G G21C C23A G33U A39U G44C, the self-cleavage was 0.01.

C8G G27A C37A: the self-cleavage worked out at 0.02.

As to C8U A14C C23G, the self-cleavage stood at 0.18.

C8G C31A G36A G40A C42G: the self-cleavage came out at 0.

C8G G21C G33C G36A: the self-cleavage was determined as 0.02.

With C8G G19A U32C G44A, the self-cleavage came out at 0.02.

As for C8G G17U U28C, the self-cleavage came to 0.01.

As to C8U A11U A24G G29A, the self-cleavage came out at 0.03.

Take C8U C10A A11G A16G G17A G19A A41C C42G: the self-cleavage was 0.01.

On to C8G U9G G17A, for which the self-cleavage came to 0.07.

Regarding C8G C15A U20C U28A, the self-cleavage came to 0.04.

Regarding C8G C23U C45A, the self-cleavage was 0.07.

Regarding C8U A12G G22U G30A U38G, the self-cleavage came to 0.15.
